The campaign covered roughly 390,000 compounds. About 930 (0.24%) were called active. Inconclusive results, whose numbers are uncertain, are shown with a selection of clear calls. The call rests on the fitted dose curve; in most records, active means well fitted activation curve with a large enough effect; inconclusive means small, poorly fitted or top-dose-only effect; inactive means no such curve, though single readings can be large or run the other way. A potency beside an inconclusive call is a rough fit, not a confirmed value.
Experiment: qHTS for Suppressors of FUS Proteinopathy: Primary screen using FUS-linked yeast assay; further: nearly all actives have a fitted effect of over 55% in size;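 on growth rescue (activation): plate controls were DMSO vehicle for no effect and reference control for full effect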
Settings: S. cerevisiae FUS-expressing, OD600, 24 h; Potency: growth rescue; growth rescue (activation): at 76.6 µM (top of the series)
How it was run: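 Steps: raffinose overnight preculture; dilution to OD 0.005 in 2% galactose minimal medium; compound addition (concentration series); 24hr at 30C, 99% humidity; absorbance read at 600 nm.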
Potency means the concentration at half of the fitted maximal effect; tags describe the fitted curve by direction and shape.

| SMILES | Potency | growth rescue (activation) |
| --- | --- | --- |
| Cc1ccc(NC(=O)CNc2cccc(C)c2C)c(C)c1 | inconclusive: 35.5 µM [activator, partial curve, poor fit] | – |
| COc1ccc([C@H]2CC(=O)C=C(c3cc(OC)ccc3OC)C2)cc1 | inconclusive: 28.2 µM [activator, partial curve] | – |
| Cc1onc(-c2ccccc2Cl)c1C(=O)Nc1nc2ccc(S(C)(=O)=O)cc2s1 | inconclusive: 31.6 µM [activator, single point] | – |
| CCCN(CCC)c1nn2c(=O)c(C(=O)NCc3cccc(OC)c3)cnc2s1 | inactive | – |
| Cc1ccc(NC(=O)C2(NC(=O)c3ccccn3)CCCCC2)cc1Br | inconclusive: 50.1 µM [activator, single point] | – |
| Cc1cccc(Cc2c(C)nc3c(C(=O)NCc4ccco4)cnn3c2C)c1 | active: 12.6 µM | – |
| CCOC(=O)C1CCCCN1S(=O)(=O)c1ccc2c(c1)CC(C)N2C(=O)C1CCC1 (stereo not given) | active: 25.1 µM | – |
| Cc1ccc(CCNC(=O)CN2C(=O)COc3ccc(S(=O)(=O)N4CCC(C)CC4)cc32)cc1 | inconclusive: 17.8 µM [activator, partial curve, poor fit] | – |
| O=C(NCc1ccccc1)C(c1cc2ccccc2o1)n1c(=O)c(-c2ccco2)nc2ccccc21 (stereo not given) | inconclusive: 39.8 µM [activator, single point] | – |
| COC/C=C/C1=CC2=CC(=O)C(C)(OC(=O)c3cnc4ccccc4n3)C(=O)C2=CN1C(CO)CO (stereo not given) | inactive | – |
| O=C(COC(=O)c1ccc(Br)c(S(=O)(=O)N2CCOCC2)c1)NCCc1ccccc1 | inactive | – |
| CCOC(=O)c1cnc2ccc(OCC)cc2c1N1CCN(c2cccc(Cl)c2)CC1 | inconclusive: 50.1 µM [activator, single point] | – |
| CCOc1ccc(C2c3c(oc4ccc(C)cc4c3=O)C(=O)N2c2nc(C)c(C)s2)cc1OC (stereo not given) | inactive | – |
| CCOc1cccc(-c2nnc3sc(C4CCCCC4)nn23)c1 | inconclusive: 50.1 µM [activator, single point] | – |
| Cc1ccc(-c2noc(CCC(=O)Nc3ccccc3C)n2)cc1 | – | inconclusive: 105% [activator] |
| Cc1cc(C)cc(OCC(=O)Nc2ccccc2C(=O)NCc2ccco2)c1 | inconclusive: 35.5 µM [activator, partial curve] | – |
| CCOC(=O)c1sc(Nc2nc3c(OC)cccc3s2)cc1C | inconclusive: 31.6 µM [activator, single point] | – |
| COc1ccc(CN(CCC(c2ccc(F)cc2)C2CCOC(C)(C)C2)C(=O)c2ccco2)cc1 (stereo not given) | inconclusive: 50.1 µM [activator, single point] | – |
| Cc1ccc(Cn2c(CCNc3nc(-c4ccc(C)cc4)cs3)nc3cc(C(=O)NCCCO)ccc32)cc1 | inconclusive: 28.2 µM [activator, partial curve, poor fit] | – |
| COCc1cc(C)nc(Nc2ccccc2OC)c1C#N | inactive | – |

| SMILES | Potency | growth rescue (activation) |
| --- | --- | --- |
| CC(C)c1ccc(CNc2nc(-c3ccco3)nn2S(=O)(=O)c2ccccc2)cc1 | inconclusive: 50.1 µM [activator, single point] | – |
| CCOC(=O)CNC(=O)N(C)[C@H]1C[C@H]2c3[nH]c4c(-c5cccc(C)c5)cccc4c3CCN2C(=O)[C@H]1[C@H](C)O | inconclusive: 35.5 µM [activator, single point] | – |
| Oc1ccc(-c2csc(-c3ccccc3)n2)cc1O | inconclusive: 35.5 µM [activator, single point] | – |
| O=[N+]([O-])c1cc(-c2csc(NCCc3nc4cc(Cl)c(N5CCCCC5)cc4n3CCCO)n2)ccc1Cl | inconclusive: 35.5 µM [activator, single point] | – |
| O=C(c1ccc(-n2cccn2)cc1)N1CCc2c([nH]c3ccccc23)C1c1ccccn1 (stereo not given) | inconclusive: 50.1 µM [activator, single point] | – |
| COc1cccc(-c2cnc3c(NC=O)cc(-c4ccc(O)c(OC)c4)cn23)c1 | inconclusive: 50.1 µM [activator, single point] | – |
| Cc1ccc(C)c(CSc2c(C(C)C)cnc3c2c(=O)n(C)c(=O)n3C)c1 | inactive | – |
| C[C@H]1COC(=O)[C@@H](Cc2ccc(F)cc2)CC/C=C/C[C@@H](CC(=O)N(CCO)Cc2ccccc2)C(=O)N1 | inactive | – |
| C#CCOc1ccc(C2C(C(=O)OC)=C(C)NC3=C2C(=O)c2ccccc23)cc1OCC (stereo not given) | inconclusive: 35.5 µM [activator, partial curve, poor fit] | – |
| O=C(Nc1nnc(-c2cccs2)o1)c1cccc(F)c1 | inactive | – |
| CC(Oc1ccc(F)cc1)c1ccnc2nc(/N=C/N(C)C)nn12 (stereo not given) | inactive | – |
| CC(=O)Nc1sc(N/N=C/c2ccc(O)cc2)nc1-c1ccc(C)cc1 | inconclusive: 22.4 µM [activator, single point] | – |
| N#Cc1cccc(NC(=O)c2cc(C3CCCCN3S(=O)(=O)c3ccccc3)on2)c1 (stereo not given) | inconclusive: 50.1 µM [activator, partial curve, poor fit] | – |
| CN(C(=O)c1ccc(NC(=O)Cc2cccc(NC(=O)C3CCCN(C(=O)C4CCC4)C3)c2)cc1)C1CCCC1 (stereo not given) | inconclusive: 39.8 µM [activator, single point] | – |
| COc1ccc(S(=O)(=O)NCC(c2ccco2)S(=O)(=O)c2ccc(C)cc2)cc1C (stereo not given) | inactive | – |
| Cc1ccc(S(=O)(=O)/C(C#N)=C/c2c(N3CC(C)OC(C)C3)nc3ccccn3c2=O)cc1 (stereo not given) | inconclusive: 28.2 µM [activator, single point] | – |
| O=C(N/N=C/c1ccncc1)c1ccc(COc2cccc3cccnc23)cc1 | inconclusive: 22.4 µM [activator, partial curve, poor fit] | – |
| Cc1nc(SCC(=O)NCC2CCCO2)c2cc(-c3ccccc3)sc2n1 (stereo not given) | inconclusive: 39.8 µM [activator, partial curve, poor fit] | – |
| Cc1c(C(=O)Nc2ccc(Cl)cc2)c2ccccn2c1C(=O)c1ccc([N+](=O)[O-])cc1 | inconclusive: 11.2 µM [activator, single point] | – |
| CS(=O)(=O)N1N=C(c2ccccc2)CC1c1ccc2c(c1)OCO2 (stereo not given) | inconclusive: 17.8 µM [activator, partial curve] | – |
